# The campaign covered roughly 310,000 compounds. About 14,000 (4.5%) showed an effect of 50% or more. Effects have a minus sign here. This is one part of the list.
# Target: human ether-à-go-go-related gene (hERG) potassium channel (human, UniProt Q12809)
# Experiment: primary screen, population patch clamp on CHO cells stably expressing hERG
# 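Further: peak tail current of the secondary pulse compared with the same well before compound.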
# Sequence of human ether-à-go-go-related gene (hERG) potassium channel (Q12809 whole entry, looked up): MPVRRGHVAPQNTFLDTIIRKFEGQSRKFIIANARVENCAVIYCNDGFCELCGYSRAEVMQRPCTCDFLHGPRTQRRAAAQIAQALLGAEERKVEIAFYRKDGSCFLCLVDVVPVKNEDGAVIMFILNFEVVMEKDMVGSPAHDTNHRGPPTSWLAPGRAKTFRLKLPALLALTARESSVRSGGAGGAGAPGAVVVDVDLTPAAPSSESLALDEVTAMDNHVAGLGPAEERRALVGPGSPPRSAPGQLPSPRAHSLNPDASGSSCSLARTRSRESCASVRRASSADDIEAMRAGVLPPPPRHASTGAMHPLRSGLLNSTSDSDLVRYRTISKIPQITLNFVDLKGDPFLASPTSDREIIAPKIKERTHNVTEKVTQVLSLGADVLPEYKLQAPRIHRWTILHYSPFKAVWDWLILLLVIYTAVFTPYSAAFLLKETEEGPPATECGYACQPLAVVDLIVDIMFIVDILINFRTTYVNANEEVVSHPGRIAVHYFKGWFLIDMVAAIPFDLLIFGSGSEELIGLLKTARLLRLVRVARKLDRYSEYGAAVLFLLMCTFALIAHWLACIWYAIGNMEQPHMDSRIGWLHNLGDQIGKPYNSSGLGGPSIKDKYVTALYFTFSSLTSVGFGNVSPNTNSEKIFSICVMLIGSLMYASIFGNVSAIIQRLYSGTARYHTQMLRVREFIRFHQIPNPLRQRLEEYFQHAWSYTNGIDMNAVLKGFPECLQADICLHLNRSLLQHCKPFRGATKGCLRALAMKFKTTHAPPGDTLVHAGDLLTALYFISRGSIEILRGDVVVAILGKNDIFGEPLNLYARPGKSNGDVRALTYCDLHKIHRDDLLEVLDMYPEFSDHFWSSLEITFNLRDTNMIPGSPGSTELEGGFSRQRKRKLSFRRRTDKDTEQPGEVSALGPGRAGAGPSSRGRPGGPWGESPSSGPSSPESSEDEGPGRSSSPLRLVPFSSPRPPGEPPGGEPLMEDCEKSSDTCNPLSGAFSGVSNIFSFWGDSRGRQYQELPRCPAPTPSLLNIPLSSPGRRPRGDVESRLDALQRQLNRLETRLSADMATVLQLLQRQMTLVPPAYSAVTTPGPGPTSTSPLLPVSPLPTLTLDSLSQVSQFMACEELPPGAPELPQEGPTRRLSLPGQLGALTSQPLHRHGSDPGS
row,Structure (SMILES),"hERG current change (%, negative = inhibition) at 10uM [%]"
1,CC(=O)NC(C)c1nc2ccccc2n1CC(=O)N1C(C)CCCC1C (stereo not drawn),16.1
2,COCCn1nnnc1C(c1ccc(OC)c(OC)c1)N1CCc2ccccc21 (stereo not drawn),-1.72
3,O=C(C1CN(S(=O)(=O)c2ccccc2)CCN1S(=O)(=O)c1ccccc1)N1CCCCCC1 (stereo not drawn),2.61
4,COc1cccc(C(=O)Cn2c(N3CCCCC3)nc3c2c(=O)n(C)c(=O)n3C)c1,12.6
5,Cc1ccc2nc(-c3ccncc3)[nH]c2c1,16.8
6,CCOc1ccc(CNC(=S)Nc2ccccc2)cc1Cl,13
7,CC(=O)Nc1nc(=S)ss1,21.2
8,O=C(Nc1cc(SCC(O)CO)cc([N+](=O)[O-])c1)c1ccc(-n2cnnn2)cc1 (stereo not drawn),20.9
9,CC(OC(=O)CN1C(=O)NC2(CCCC2)C1=O)C(=O)Nc1cccc(Cl)c1 (stereo not drawn),-15.3
10,CCCCN1C(=O)/C(=C(/C#N)C(N)=O)c2ccccc21,24.3
11,CC(=O)NC(CC(=O)OCC(=O)Nc1ccc2c(c1)OCO2)c1ccccc1 (stereo not drawn),16.9
12,CCCNC(=O)CN1CCN(c2cc3ccccc3c(Cl)n2)CC1,-48.2
13,O=C(CC(c1ccccc1)c1ccccc1O)NCc1ccccc1Cl (stereo not drawn),-1.24
14,COc1cccc(N2CCN(CC(=O)Nc3nc(C)c(C(=O)N(C)C)s3)CC2)c1,8.42
15,COC(=O)CNC(=O)C1CCN(S(=O)(=O)c2cccc3nsnc23)CC1,20.2
16,CC(=O)Nc1ccc(SC[C@H](Cc2ccccc2)N2CCN(CCc3ccccc3)CCC2=O)cc1,-55.9
17,COc1ccc(NC(=S)Nc2ccc(OC(F)F)cc2)cn1,-25.8
18,Cc1onc(-c2ccccc2Cl)c1C(=O)Nc1cccnc1,-6.11
19,COc1ccc(N=C2S/C(=C\c3cccs3)C(=O)N2CC(C)C)cc1,-6.62

row,Structure (SMILES),"hERG current change (%, negative = inhibition) at 10uM [%]"
1,O=C(N/N=C\c1ccc(OCC(=O)N2CCCC2)cc1)C(=O)Nc1ccccc1F,-40.7
2,C/C(=N/NC(=O)CNC(=O)c1ccc2c(c1)OCO2)c1ccc2c(c1)CCCC2,-9.71
3,C[C@H](NC(=O)NCc1ccc(F)cc1)C(=O)O,8.19
4,CC12CCC(C(=O)N(NC(=O)c3ccccc3O)C1=O)C2(C)C (stereo not drawn),16.7
5,CC12COC3(C(=O)Nc4ccccc4)CC1CCC32C (stereo not drawn),10.9
6,COCCNCC(O)CON=C1c2ccccc2-c2ccccc21 (stereo not drawn),-21.3
7,COc1ccc(NC(=O)COc2ccccc2)cc1Cl,4.08
8,Cc1c(C(=O)NNc2c(Cl)cccc2Cl)n(C)oc1=O,11.3
9,Cc1nccc2c1[nH]c1ccc(Br)cc12,-3.51
10,N#Cc1nc(COc2ccc(F)cc2)oc1N1CCN(Cc2ccccc2)CC1,-75.3
11,Cc1ccc(-c2nc(C=Nc3cccc(C)c3)c(O)o2)cc1,21.6
12,CCC1CCc2sc(C(=O)OCC(=O)N(CCOC)c3c(N)n(Cc4ccccc4)c(=O)[nH]c3=O)cc2C1 (stereo not drawn),-13.4
13,CN(C)c1ccc(/C=C/C(=O)c2ccccc2O)cc1,17.1
14,Cc1ccc(CCNC(=O)C2CCCN(S(=O)(=O)c3c(C)noc3/C=C/N(C)C)C2)cc1 (stereo not drawn),-11.1
15,CC(OC(=O)c1nsc(Cl)c1Cl)C(=O)NCc1cccs1 (stereo not drawn),5.44
16,O=C(CC1SC(=O)N(Cc2ccccc2Cl)C1=O)Nc1nccs1 (stereo not drawn),-5.31
17,CCn1c(=O)c(C(=O)Nc2ncccc2O)c(O)c2ccccc21,29.1
18,Cc1nn(C)c(C)c1CCC(=O)N1CCCC(Nc2ccc(C(C)C)cc2)C1 (stereo not drawn),5.72
19,Cc1ccc(S(=O)(=O)N2CCOCC2)cc1NC(=O)COC(=O)CNC(=O)c1ccc(Cl)cc1Cl,-12.8

row,Structure (SMILES),"hERG current change (%, negative = inhibition) at 10uM [%]"
1,O=C(Nc1cc(Cl)ncn1)c1ccccc1,5.53
2,Cc1ccc(OCCn2cc(/C=N/NC(=O)c3ccncc3)c3ccccc32)cc1,-7.64
3,CCOc1cc(-c2nnc(-c3ccco3)o2)cc(OCC)c1OCC,9.51
4,Cn1cc([N+](=O)[O-])c(C(=O)Nc2ccc(C3CCCCC3)cc2)n1,37.1
5,C=C(C)c1ccccc1NC(=O)CCN1C(=O)c2ccccc2S1(=O)=O,-1.17
6,Cc1ccc(/C=C/C(=O)O)cc1S(=O)(=O)N1CCCCC1,8.12
7,COc1cc(OC)c(OC)cc1CNCc1ccc2c(c1)OCO2,16.1
8,Cc1cccc(/C=N/NC(=O)c2cc(-c3cccnc3)nc3ccccc23)c1,1.78
9,CCN(CC)c1ccc(NC(=O)CN2CCN(CC(=O)Nc3ccccc3OC)CC2)cc1,-26.9
10,COc1cc(C2C(C#N)=C(N)Oc3cc(C)oc(=O)c32)cc2c1OCO2 (stereo not drawn),-6.59
11,COc1cccc2cc(CC(=O)c3ccccc3)c(=O)oc12,13.6
12,COc1cc2[nH]c(=O)n(Cc3ccc(C(=O)NCC4CCCO4)cc3)c(=O)c2cc1OC (stereo not drawn),-2.65
13,C=CCOC(=O)C(C#N)c1nc2ccccc2nc1N1CCN(Cc2ccc3c(c2)OCO3)CC1 (stereo not drawn),-35.8
14,CC1=C/C(=C\c2ccc(Br)o2)C(=O)O1,17.4
15,CCCCCOc1ccc(CN2CCOCC2)cc1Cl.Cl,-9.97
16,CCN1CCN(S(=O)(=O)c2ccc(C(C)(C)C)cc2)CC1,8.06
17,O=[N+]([O-])c1cccc(Oc2cnccn2)c1,16.4
18,O=C(C1CCCO1)N(c1ccc(F)cc1)C1C=CS(=O)(=O)C1 (stereo not drawn),22.6
19,O=C(CN1C(=O)COc2ccccc21)Nc1ccc(F)cc1,8.36
